Assay results from the BET-seq Pho4 binding data (Le et al. 2018).
The other results are listed elsewhere or left out. These are noisy estimates, calculated here from bound and input reads.

These sequences were tested against T1, Pho4 (S. cerevisiae) (UniProt P07270) (assay: relative binding free energy (BET-seq); higher = weaker binding). Settings: reference: library average.
T1 sequence: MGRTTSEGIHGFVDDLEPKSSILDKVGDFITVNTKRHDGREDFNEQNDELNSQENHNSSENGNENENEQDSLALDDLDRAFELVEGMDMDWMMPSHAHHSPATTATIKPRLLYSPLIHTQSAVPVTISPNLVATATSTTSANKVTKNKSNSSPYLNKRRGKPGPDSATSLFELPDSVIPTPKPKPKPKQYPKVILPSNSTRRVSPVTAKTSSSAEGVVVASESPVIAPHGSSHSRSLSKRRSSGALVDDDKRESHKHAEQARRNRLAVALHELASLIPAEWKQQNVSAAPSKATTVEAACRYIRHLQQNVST

Row | Sequence | relative binding free energy [kcal/mol]
1 | GTTGGCACGTGCGATC | 0.14
2 | GGAACCACGTGTGTGG | -0.04
3 | ACGTACACGTGCGGGT | 0.02
4 | CGAGGCACGTGAAGGG | 0.11
5 | ATCTACACGTGTGGGG | 0.11
6 | TTGGTCACGTGGCCTT | 0.02
7 | TGGGGCACGTGTGAAA | 0.12
8 | GGGAGCACGTGGGCCA | -0.07
9 | TCCTGCACGTGGAGGG | 0
10 | TGTGGCACGTGGGTAC | -0.16
11 | AGTAGCACGTGGCATT | -0.14
12 | GGCGGCACGTGAGGGG | 0.19
13 | TTAATCACGTGTAGGG | 0.13
14 | CGATGCACGTGGTTGA | -0.14
15 | TGCTGCACGTGTGTTA | 0.07
16 | AGGTGCACGTGGATTA | 0.03
17 | AGGGTCACGTGTGTAA | 0.06
18 | TTTCACACGTGAGGGT | 0.21
19 | CTGGTCACGTGGGAAT | 0.1
20 | GGTTTCACGTGTTTCT | 0.34
21 | CGTGGCACGTGGTCTT | -0.19
22 | GTTGTCACGTGTTTAC | 0.12
23 | GTTTTCACGTGCTGCG | 0.23
24 | GCTTGCACGTGAGGAG | 0.36
25 | GAAGGCACGTGTCGTT | -0.09

Row | Sequence | relative binding free energy [kcal/mol]
26 | TCATGCACGTGGAGGG | -0.09
27 | GAGCGCACGTGTGGAT | -0.11
28 | TTGATCACGTGATCGT | 0.24
29 | GATGTCACGTGTTTAG | 0.22
30 | ATGTTCACGTGGGTCG | 0.21
31 | TGAATCACGTGATGTA | 0.2
32 | TGTTTCACGTGGAGTC | 0.25
33 | GGGGGCACGTGGGCTT | -0.13
34 | GTTTGCACGTGTGCGA | 0
35 | TGGGGCACGTGCATAA | -0.23
36 | CTTGTCACGTGGTGAA | 0
37 | ACGGGCACGTGTTTAG | -0.13
38 | TTTAACACGTGGTTAT | -0.02
39 | GTGGCCACGTGAATGT | 0.36
40 | AAGTTCACGTGTGGGG | 0.34
41 | GCGGGCACGTGGGGAT | -0.06
42 | GGGGGCACGTGATATG | -0.08
43 | GGTTACACGTGCAGCG | 0.3
44 | GCTTGCACGTGGAATG | 0.06
45 | TGAGGCACGTGCGGCT | -0.2
46 | TCCGTCACGTGTGGAG | 0.18
47 | GTGAGCACGTGAGAGG | 0.06
48 | TCTAACACGTGTTGTG | -0.05
49 | GGCTGCACGTGAGGCT | 0.26
50 | TTGCTCACGTGGTGGG | 0.33

Row | Sequence | relative binding free energy [kcal/mol]
51 | AGGGACACGTGTTAAT | 0.08
52 | TTAGTCACGTGTTACG | 0.01
53 | TAAGGCACGTGAGGAG | 0.07
54 | GTTGGCACGTGTATAT | 0.03
55 | AGTCGCACGTGGGGCA | -0.3
56 | AGGGCCACGTGGTTGG | -0.06
57 | AGGTTCACGTGGTACG | 0.13
58 | CTTGGCACGTGGCGAT | -0.2
59 | GTGGCCACGTGAGTAG | 0.21
60 | TTGGTCACGTGATATG | 0.23
61 | TCTCGCACGTGGTGGT | -0.26
62 | GGTAACACGTGGGGAC | -0.15
63 | GGTATCACGTGGCTCG | 0.21
64 | AATGACACGTGGAATT | 0.09
65 | TATGTCACGTGGAGTG | -0.04
66 | TAGCGCACGTGGAGTC | 0.12
67 | TTGAGCACGTGGGATA | -0.18
68 | AAATCCACGTGTGGGT | 0.08
69 | GTTATCACGTGAGGTC | 0.3
70 | AGTTTCACGTGAGATA | 0.31
71 | AGGCTCACGTGGGGCA | 0.13
72 | GGTAGCACGTGGCTGA | -0.12
73 | TCTGGCACGTGTAGTT | -0.01
